The full ranking holds about 110,000 compounds; the median of “z-score” is about -0.1, and the highest 2% start at about 2. Some of the results follow. Active and inactive are the calls of the source.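 Rule for the calls: active = z-score in the third read window above 3 or below -3; inactive = the rest.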 Non-standard residues stand in square brackets, D forms with d. Residues, ends and D or L forms follow the SMILES beside them. ξ: configuration not given here. ξF = NC(Cc1ccccc1)C(=O)O

This test deals with Metabotropic glutamate receptor 8 (Rattus norvegicus) (UniProt P70579). Put plainly: mGluR8 Gi/Go-coupled signaling modulation – cell-based, rat, thallium flux, HTS, primary screen (AID 488969). As to conditions: HEK293 rat mGluR8, GIRK (G protein-gated inwardly rectifying potassium channel) thallium flux, FluoZin2; at 10 µM; stronger effect = higher value; submaximal glutamate (EC20) added with thallium.
UniProt P70579, sequence (P70579 whole entry, looked up): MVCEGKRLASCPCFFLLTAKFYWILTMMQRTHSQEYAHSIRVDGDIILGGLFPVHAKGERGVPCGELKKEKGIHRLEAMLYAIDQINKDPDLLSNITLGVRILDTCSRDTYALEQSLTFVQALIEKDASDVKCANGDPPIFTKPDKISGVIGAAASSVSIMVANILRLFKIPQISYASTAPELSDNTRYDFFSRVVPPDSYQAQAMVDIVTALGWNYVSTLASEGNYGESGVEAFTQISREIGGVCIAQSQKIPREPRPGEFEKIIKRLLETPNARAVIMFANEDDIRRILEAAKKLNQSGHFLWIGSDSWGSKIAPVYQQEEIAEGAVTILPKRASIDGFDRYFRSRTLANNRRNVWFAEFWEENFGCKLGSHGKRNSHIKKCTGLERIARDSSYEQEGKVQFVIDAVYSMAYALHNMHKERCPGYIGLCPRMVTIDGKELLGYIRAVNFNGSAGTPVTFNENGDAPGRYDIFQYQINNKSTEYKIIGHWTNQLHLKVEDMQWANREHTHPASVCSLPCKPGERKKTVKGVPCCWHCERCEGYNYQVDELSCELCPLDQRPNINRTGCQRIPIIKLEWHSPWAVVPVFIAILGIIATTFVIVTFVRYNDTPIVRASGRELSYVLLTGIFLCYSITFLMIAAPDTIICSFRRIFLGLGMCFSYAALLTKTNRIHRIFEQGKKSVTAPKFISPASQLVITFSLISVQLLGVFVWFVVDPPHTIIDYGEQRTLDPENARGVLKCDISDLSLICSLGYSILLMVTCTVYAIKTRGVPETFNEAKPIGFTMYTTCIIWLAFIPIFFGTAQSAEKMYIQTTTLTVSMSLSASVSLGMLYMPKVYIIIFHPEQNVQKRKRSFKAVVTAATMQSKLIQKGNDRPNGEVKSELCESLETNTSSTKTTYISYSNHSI
As for `O=C(c1cc2nc(-c3ccco3)cc(C(F)(F)F)n2n1)N1CCN(Cc2ccccc2)CC1`, the z-score is -0.1.
Under `O=C(O)CSc1nnc(CNc2ccccc2Cl)n1-c1ccccc1` stands -0.237; under `O=C(Cc1ccc(Cl)cc1)Nc1ccccc1N1CCOCC1`, -0.153.
With `O=C(Nc1nnc(-c2ccc3c(c2)CCCC3)o1)c1ccc(Cl)cc1Cl` the figure was active: 15.6.
With `O=C(Cn1nnc2ccccc2c1=O)NCc1ccco1` the figure was 0.114; with `Cc1cn(C(=O)C(C)N2C(=O)c3ccccc3C2=O)c(C)n1` (configuration not stated), -0.605.
As to `CCN(CC)C(=O)CSc1nnc(CNc2ccc(F)cc2)n1Cc1ccco1`, the z-score was -0.092.
With `O=C(CNC(=O)/C(=C/c1ccccc1)NC(=O)c1ccc(Br)cc1)OCc1ccccc1` the figure was -0.0265; with `CC1=NN(C(=O)c2ccc(Br)cc2)C(O)(C(F)(F)OC(F)(F)F)C1` (configuration not stated), -0.31.
With `COc1ccc(Cn2c(N)c(C#N)c3nc4ccccc4nc32)cc1` the figure was -0.182.
Under `CC(=O)Nc1ccc(S(=O)(=O)NC(C)C(=O)OCC(=O)NC2CCCC2)cc1` (configuration not stated) stands -0.107; under `CCC(CC)C(=O)OCC(=O)NC12CC3CC(CC(C3)C1)C2`, -0.0127; under `COc1ccc(OCc2n[nH]c(=S)o2)cc1`, -0.0823.
Compound `COCCCNC(=O)CCc1nc2cccnc2n1Cc1ccc(OC)cc1` showed a z-score of -0.209.
For the compound `O=C(N/N=C/c1ccncc1)c1cccc(NC(=O)c2ccc(Cl)cc2)c1`, the z-score is -0.428.
Under `Cc1[nH]c2ccccc2c1C(O)CN1CCN(c2cccc(C(F)(F)F)c2)CC1` (configuration not stated) stands 0.495; under `O=C(O)C1C2C=CC(C2)C1C(=O)N1CCc2ccccc21` (configuration not stated), -0.42; under `C/C(CCc1oc2ccc(Cl)cc2c1-c1ccc(C)o1)=N\O`, 1.93.
In turn, `CCOc1ccc(-n2c(=S)sc3c(=O)[nH]c(SCC(=O)NC(C)CC)nc32)cc1` (configuration not stated) had a z-score of -0.859.
With `CCOC(=O)c1nc(Nc2ccc(C)cc2)c2ccccc2n1` the figure was -1.02; with `CCn1ncc(C2C(C(=O)Nc3ccc(C)cn3)=C(C)NC3=C2C(=O)CCC3)c1C` (configuration not stated), -0.378.
With `CCC/C(=N/Nc1ccc(Cl)cc1)c1cnnc(-c2ccccc2)n1` the figure was -0.578; with `Cc1ccc(S(=O)(=O)c2nc(NCCN(C)C)sc2Cl)cc1`, 1.67.
With `CSc1nc2ccccc2n1CC(=O)Nc1ccccc1` the figure was 1.51.
Compound `Cc1nn(-c2ccccc2)c(Cl)c1C1C(C#N)=C(N)OC2=C1C(=O)CC(C)(C)C2` (configuration not stated) registered a z-score of -0.29.
Under `O=c1c2ccccc2nnn1CSc1nc2ccccc2[nH]1` stands 0.194; under `CN(CC(=O)Nc1ccc(S(=O)(=O)N2CCCC2)cc1)Cc1cccc(Cl)c1Cl`, -0.0422.
`COc1ccc(NC(=O)CSc2nnc(-c3cccnc3)o2)cc1` came in with a z-score of 0.845.
Under `O=C(CN(Cc1ccccc1)S(=O)(=O)c1ccc2c(c1)OCCO2)Nc1ccc2c(c1)OCCO2` stands -0.803.
Turning to `CCCOC(=O)c1ccc2c(c1)C(=O)N(c1ccccc1)C2=O`, the z-score is -0.411.
With `O=C(Nc1cccc(F)c1)c1cccc(S(=O)(=O)N2CCOCC2)c1` the figure was 1.54; with `CCOc1ccccc1N1CCN(C(=O)c2c(C)noc2C)CC1`, 0.356.
Turning to `CCCCCCNC(=O)C(C(=O)OCC)C1CCCCC1` (configuration not stated), the z-score is 0.494.
Under `CCOc1cc(C(C#N)N2CCOCC2)ccc1OC` (configuration not stated) stands 1.21; under `COc1cccc(/C=N/c2oc(-c3ccccc3)cc2C#N)c1O`, -0.279; under `Cc1c(Br)c([N+](=O)[O-])nn1C(C)C(=O)NCc1cccs1` (configuration not stated), -0.152.
`Cc1[nH]n(-c2ccc([N+](=O)[O-])cc2)c(=O)c1C=NCCc1c(C)[nH]c2ccccc12` gave a z-score of -0.0759.
`CCOc1ccc(C(=O)NCc2cccs2)cc1` gave a z-score of 0.445.
With `CCCc1cc(-c2nc(-c3ccc(C)cc3)cs2)ccn1` the figure was 0.113; with `CC(C)C(=O)Nc1ccc(-c2csc(-c3ccccc3)n2)cc1`, -0.165; with `Cc1ccc(N2CC(C(=O)Nc3nccs3)CC2=O)cc1Cl` (configuration not stated), -0.934.
For the compound `CCC1(C)C2(C#N)C(N)=NC(OC)(OC)C12C#N` (configuration not stated), the z-score is -0.0981.
With `Cn1c(SCC(=O)N2CCOCC2)nnc1-c1ccccc1` the figure was -0.153.
The compound `Cc1ccc2c(c1)C=CC(C)N2C(=O)c1ccccc1` (configuration not stated) yielded a z-score of -0.877.
Take `Cc1c(N=Cc2ccccn2)c(=O)n(-c2ccccc2)n1C`: the z-score is -0.342.
With `Cc1oc(=O)c(NC(=O)c2ccccc2)cc1C(=O)c1ccccc1` the figure was -0.469; with `CC(C(=O)Nc1ccccc1-c1ccccc1)N1CCOCC1` (configuration not stated), -0.125.
Under `CC(=O)NCC(=O)NC(Cc1ccccc1)C(N)=O` (configuration not stated) (Ac-Gly-[ξF]-NH2) stands -0.919; under `Cc1cc(C)n(-c2nc3c(c(=O)[nH]c(=O)n3C)n2Cc2ccc(F)cc2)n1`, 0.0308; under `CCCN1C(=O)c2ccccc2NC1c1cc(OC)c(OC)c(OC)c1` (configuration not stated), 0.194.
`CCCCOCCCNC(=O)Cc1cccs1`: the z-score is -1.05.
Under `CC(=O)Nc1ccc(C(=O)NC2CCCC2)cc1` stands -0.0856; under `CCn1c2ccccc2c2nnc(NN)nc21`, -0.81; under `CN(C)C(=O)CCCc1nc(-c2ccc(Cl)cc2)no1`, -0.0842.
As for `COc1ccc(-n2c(Cc3cccn3C)nnc2SCC(=O)NCCc2ccccc2)cc1`, the z-score is -0.482.
The compound `Cc1ccccc1-n1c(C)nnc1SCc1cc(=O)oc2ccc3ccccc3c12` came in with a z-score of 0.0722.
With `O=C(Cc1ccccc1)NN1C(=O)C2C(C1=O)C1C=CC2C12CC2` (configuration not stated) the figure was -0.165; with `O=C(NC1C2CC3CC(C2)CC1C3)C1CC1` (configuration not stated), 0.767; with `CCOC(=O)N1CCC(NC(=O)c2cc3ccccn3n2)CC1`, -0.177.
With `CCC(C(=O)N1CCc2cc(OC)c(OC)cc2C1)c1ccccc1` (configuration not stated) the figure was -0.523; with `O=C(c1cccc(Br)c1)c1cn(-c2ccccc2)nc1C(=O)c1ccccc1`, -0.106.
With `Cc1ccc(C(=O)N2CCCC2)cc1S(=O)(=O)Nc1ccccc1` the figure was -0.144.
Turning to `CCOc1ccc(Cc2c(Cl)nc(SC)nc2OC)cc1`, the z-score was -0.264.
With `C=CCNC(=O)c1onc(CSc2cccc(OCC)c2)c1C(=O)O` the figure was -0.301.
For the compound `Nc1nc(NCCO)nc(NCC2CCCO2)c1[N+](=O)[O-]` (configuration not stated), the z-score was -0.192.
Compound `O=C(NCc1ccccc1)C1(c2ccccc2)CCN(S(=O)(=O)c2ccccc2)CC1` had a z-score of -0.383.
`O=C(Nc1ccc(O)cc1)C1CCCO1` (configuration not stated) yielded a z-score of 0.459.
On to `COc1ccc(C(=S)Nc2ccc(N(C)C)cc2)cc1`, for which the z-score is 0.0803.
The compound `CN(c1ccccc1)S(=O)(=O)c1ccc(C(=O)OCC(=O)N2CCOCC2)cc1` returned a z-score of 0.719.
With `CCOC(=O)CSc1nc(C)cc(C)c1C#N` the figure was -0.43; with `Cn1c(-c2cc3ccc(OC(=O)C(C)(C)C)cc3oc2=O)nc2ccccc21`, -0.174; with `CC1CCCCC1n1c(=S)[nH]c2ccccc2c1=O` (configuration not stated), active: 16.2.

For the origin of these results see PubChem BioAssay AID488969 (Vanderbilt High Throughput Screening Facility, 2010).
